Experimental data taken from PubChem BioAssay AID686971 (National Center for Advancing Translational Sciences (NCATS), 2013).
In all, about 360,000 compounds went through this assay and about 7,500 (2.1%) were called active. Inconclusive means that the source gave no clear call. Such entries were picked first, then a sample of the others. The call rests on the fitted dose curve; in most records, active means well fitted cell-killing curve with a large enough effect; inconclusive means small, poorly fitted or top-dose-only effect, or effect the other way, or another doubt; inactive means no such curve, though single readings can be large or run the other way. Potencies of inconclusive entries are left out as doubtful fits.

experiment: qHTS for induction of synthetic lethality in tumor cells producing 2HG: qHTS for the HT-1080-IDH1KD cell line; conditions: HT-1080 IDH1 knockdown viability, ATP luminescence, 48 h; activity, negative = toxicity: at 46.1 µM (top of the series) unless noted;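 on activity, negative = toxicity: 0% = DMSO wells and -100% = cell-free medium wells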
Method in brief: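 Viability of IDH1-knockdown HT-1080 fibrosarcoma cells was assessed by CellTiter-Glo after 48 h at 37 °C with titrated compound; concentration-effect curves were classified by fit quality and response size.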
Potency means the concentration at half of the fitted maximal effect; tags describe the fitted curve by direction and shape.

SMILES	Potency	activity, negative = toxicity
CCCCNc1ncnc2c1cnn2-c1ccccc1	active: 14.6 µM	
Cc1nc2ncccn2c1-c1csc(Nc2ccc(N(C)C)cc2)n1	inconclusive [cytotoxic, full curve, poor fit]	
Cc1cc2ccccn2c1C(=O)c1ccc(N/N=C/c2ccc(C(=O)O)cc2)c([N+](=O)[O-])c1	inactive	
Cc1occc1-c1nnc(SC(C)C(=O)Nc2ccccc2F)o1 (centres undefined)	inconclusive [cytotoxic, single point]	
COc1cccc(N=Nc2ccc3cccnc3c2O)c1	inconclusive [cytotoxic, partial curve]	
O=C1CCC(C(=O)N(CCO)Cc2ccccc2)CN1CCc1cccc(F)c1 (centres undefined)	inactive	
O=C(N/N=C/c1ccc(OC2CSC2)cc1)c1ccc(CN2CCOCC2)cc1		inconclusive: -24.8% [cytotoxic]
COc1cccc(-c2csc(N3CCN(C(=S)Nc4cccc(Cl)c4)CC3)n2)c1	inconclusive [cytotoxic, single point]	
CC(C)Cc1nc(N2CCN(C(=O)c3ccco3)CC2)c(C#N)c2c1CCCC2	inconclusive [cytotoxic, single point]	
CCC(=O)Nc1ccc(S(=O)(=O)Nc2cccc(C)c2)cc1OC	inconclusive [cytotoxic, partial curve]	
COc1ccc(Nc2nc(-c3cccc(OC)c3O)nc3ccccc23)cc1	inconclusive [cytotoxic, single point]	
Cc1ccc(Nc2nc(N)nc(CSC(=S)N3CCN(c4ccccc4)CC3)n2)cc1	inactive	
O=C(CCNC(=O)c1ccco1)Nc1ccc(Cl)cc1	inconclusive [cytotoxic, full curve]	
CCOC(=O)[C@]12CCCC=C1N(Cc1ccc(Cl)cc1Cl)C(=O)[C@H](CC(=O)NCCC(C)C)C2	inconclusive [cytotoxic, single point]	
O=C(O)c1cccc(CN2C(=O)S/C(=C/c3cccc([N+](=O)[O-])c3)C2=O)c1	active: 16.4 µM	
CC(C)(C)OC(=O)N(Cc1ccccc1)Cc1ccccc1OCc1cccc(NC(=O)C2CC2)c1	inconclusive [cytotoxic, single point]	
O=C(Nc1cccc(Cl)c1)Nc1cc(S(=O)(=O)N2CCCCC2)ccc1Cl	active: 25.9 µM	
CC(=O)Nc1ccc(-c2ccnc3c2CC(C)(C(=O)Nc2cccc(OC(F)(F)F)c2)O3)cc1 (centres undefined)	inconclusive [cytotoxic, single point]	
COC(=O)C1=C(CN2CCCc3ccccc32)NC(=O)NC1c1ccc(F)cc1 (centres undefined)	inconclusive [cytotoxic, partial curve]	
N#Cc1ccccc1OCCCN1CCC(Cc2ccccc2)CC1	inconclusive [cytotoxic, single point]	
Cc1ccc(-c2cn3cc(C)ccc3n2)cc1		inconclusive: -32.1% [cytotoxic]
CC(C(=O)Nc1ccccc1Br)N1c2cccc3cccc(c23)S1(=O)=O (centres undefined)	inconclusive [cytotoxic, single point]	
O=S(=O)(c1cccc(NC(=S)N2CCN(c3cccc(Cl)c3)CC2)c1)C(F)F	active: 23.1 µM	

SMILES	Potency	activity, negative = toxicity
O=C(Cn1nnc2ccccc2c1=O)N1CCCc2ccccc21	inconclusive [cytotoxic, single point]	
CC(C)CCCCCCNC(=S)Nc1ccc(S(=O)(=O)N2CCOCC2)cc1	inconclusive [cytotoxic, single point]	
Cc1ccc(CNC(=S)Nc2ccc(NS(=O)(=O)c3ccc(C)cc3)cc2)cc1	inconclusive [cytotoxic, single point]	
COc1ccc(Cn2c(-c3ccc(Br)cc3)c[n+]3ccccc23)cc1	inconclusive [cytotoxic, single point]	
O=C(NC(=S)NCCc1ccccc1)c1ccccc1	inconclusive [cytotoxic, single point]	
O=c1[nH][nH]c2c1[C@H](CCc1cccc(Cl)c1)O[C@H](C1CCCC1)C2	active: 7.31 µM	
COc1ccccc1N1CCN(C(=S)Nc2cccc(C)c2)CC1	inconclusive [cytotoxic, single point]	
COc1cc(/C=C/c2nc3ccccc3s2)cc(OC)c1O	inactive	
CC(OC(=O)CCOc1ccccc1)C(=O)Nc1ccc(Cl)cn1 (centres undefined)	inactive	
CCc1nc2ccc(C(=O)Nc3ccc(Cl)c(Cl)c3)cn2c1N(C)Cc1ccc(OC)cc1	inconclusive [cytotoxic, single point]	
O=C(Nc1ccc(Cl)cc1)N1CCC(CO)(Cc2ccccc2)CC1	inconclusive [cytotoxic, full curve, poor fit]	
COc1cccc(/C=C/C(=O)c2ccc3c(c2)OCO3)c1OC	inconclusive [cytotoxic, single point]	
O=C(CSc1nnc2ccccn12)Nc1ncc(Cl)cc1Cl	inconclusive [rising, single point]	
CC1(C(=O)NCc2ccco2)Cc2c(-c3ccc(C(N)=O)cc3)ccnc2O1 (centres undefined)	active: 2.91 µM	
CC(C)CCNC(=O)c1cnn2c(C(F)(F)F)cc(-c3ccco3)nc12	inconclusive [cytotoxic, single point]	
COc1ccc(C)cc1S(=O)(=O)Nc1ccc(F)c(Cl)c1	inconclusive [cytotoxic, single point]	
CCOc1ccc(CN(C(=O)c2oc3ccccc3c2C)C2CCS(=O)(=O)C2)cc1 (centres undefined)	inconclusive [cytotoxic, single point]	
CCOc1ccc(CCN2C(=S)N([C@@H](CC(C)C)CN3CCCC3CN3C(=S)NC[C@@H]3Cc3ccccc3)C[C@@H]2CC(C)C)cc1 (some centres undefined)	inconclusive [cytotoxic, partial curve, poor fit]	
Cc1cccc(N2CCN(C(=O)COCc3cc(-c4ccc5c(c4)OCO5)on3)CC2)c1C	inconclusive [cytotoxic, single point]	
Cc1ccc2nc(-c3ccc(NC(=O)COC(=O)c4ccc(Br)o4)cc3)sc2c1	inconclusive [cytotoxic, single point]	
CSC1=NC(C)(C)C=C(/C=C/c2c(Cl)cccc2Cl)N1		inconclusive: -15.2% [cytotoxic]
Cc1ccc(C)c2c3c([nH]c12)-c1nonc1CC3	inconclusive [cytotoxic, single point]	
FC(F)(F)c1cccc(CC2CN(Cc3ccccc3)Cc3ccccc3N2c2cc(Cl)cc(Cl)c2)c1 (centres undefined)	inactive	

SMILES	Potency	activity, negative = toxicity
Cc1nc(NC(=O)/C=C/c2ccccc2)sc1C(=O)Nc1ccc(Cl)cc1	inconclusive [cytotoxic, single point]	
O=S(=O)(O)c1nc2ccccc2[nH]1	inactive	
CN(Cc1ccccc1)C(=O)c1ccc(Nc2nc(C(N)COCc3ccccc3)cs2)nc1 (centres undefined)	inconclusive [cytotoxic, partial curve]	
CC(O)(c1cccc(F)c1)c1nc(-c2ccoc2)cs1 (centres undefined)	inconclusive [cytotoxic, single point]	
Oc1cccc(-c2sc3ccccc3c2-c2ccc(OCCN3CCCCC3)cc2)c1	active: 11.6 µM	
Cc1ccc(CN(N=Nc2nonc2N)c2nonc2N)c(C)c1	inconclusive [cytotoxic, single point]	
CCOc1ccc(S(=O)(=O)NN=C(C)c2cccnc2)cc1	inactive	
CCOC(=O)c1ccc(NC(=S)N(CCCN2CCN(C)CC2)Cc2cccs2)cc1	inconclusive [cytotoxic, partial curve]	
CCCCN(C)c1c(C)nc2ccc(C(=O)NCCc3c[nH]c4ccccc34)cn12	inconclusive [cytotoxic, single point]	
CCOC(=O)Nc1cc2c(c(N)n1)N=C(c1ccccc1)CN2	inconclusive [cytotoxic, partial curve, poor fit]	
O=C(/C=C/c1ccc([N+](=O)[O-])cc1)Nc1cccnc1	inactive	
COc1cccc(C(O)c2nc(-c3ccc(N(C)C)cc3)cs2)c1 (centres undefined)	inconclusive [cytotoxic, single point]	
S=C1SCN(Cc2cccnc2)CN1Cc1ccccc1	active: 20.6 µM	
O=C(Nc1ccc(Cl)c(Cl)c1)N1CC=C(c2ccccc2)CC1	inconclusive [cytotoxic, single point]	
Cc1ccc(-c2nc(C#N)c(NCc3cccc4c3OCO4)o2)cc1	inconclusive [cytotoxic, single point]	
C/C(=N\OCC(=O)N/N=C/c1ccccc1O)c1cccs1	inconclusive [cytotoxic, partial curve]	
CC(O)(c1ccc(F)c(F)c1)c1nc(-c2cccc(C#N)c2)cs1 (centres undefined)	inconclusive [cytotoxic, single point]	
CCc1nc2ccc(C(=O)NCCCN3CCCC3=O)cn2c1N(CC)CCOC		inconclusive: 14.7%
CCN(CC)c1ccc(NC(=O)c2ccccc2F)cc1	active: 16.4 µM	
Cc1ccc(C)c2nc3sc(C(=O)N4CCOCC4)c(N)c3cc12	active: 3.26 µM	
O=C(C[C@H]1C/C=C/CC[C@@H](Cc2ccc(F)cc2)C(=O)O[C@@H](c2ccccc2)CNC1=O)NCCO	inactive	
COc1ccc(C)cc1NC(=S)N1CC(C)OC(C)C1 (centres undefined)	inactive	
Cc1ncoc1C(=O)NC1CCCc2c1cnn2-c1ccc(C(C)(C)C)cc1 (centres undefined)	inconclusive [cytotoxic, partial curve]	
